Test results: patent US20070264195A1 (H LUNDBECK A S, published 2007)

Assays:
[1] = target: T1, recombinant human TrkA/Fc chimera (R&D Systems) (human, UniProt P04629-2 34-407); test: SPR (BIAcore), 25-500 nM proNGF over TrkA-IgG-Fc immobilized at 66 fmol/mm2
T1 construct: Bought reagent; also called TrkA-IgG-Fc; not shown: IgG Fc of the bought chimera
Method: (§1) FIG. 3: Characterization of proNGF binding to p75, TrkA, and Sortilin as measured by surface plasmon resonance analysis (BIAcore). Binding of 25-500 nM proNGF was measured to 91.5 fmol/mm² immobilized p75-IgG-Fc chimeric protein (upper panel), to 66 fmol/mm² immobilized TrkA-IgG-Fc (middle panel), and to 51 fmol/mm² purified Sortilin extracellular domain (lower panel).

[2] = target: T2, purified human Sortilin extracellular domain (human, UniProt Q99523 78-755); test: SPR (BIAcore), 25-500 nM proNGF over Sortilin extracellular domain immobilized at 51 fmol/mm2
T2 construct: also called immobilized Sortilin; NTR-3
T2 sequence: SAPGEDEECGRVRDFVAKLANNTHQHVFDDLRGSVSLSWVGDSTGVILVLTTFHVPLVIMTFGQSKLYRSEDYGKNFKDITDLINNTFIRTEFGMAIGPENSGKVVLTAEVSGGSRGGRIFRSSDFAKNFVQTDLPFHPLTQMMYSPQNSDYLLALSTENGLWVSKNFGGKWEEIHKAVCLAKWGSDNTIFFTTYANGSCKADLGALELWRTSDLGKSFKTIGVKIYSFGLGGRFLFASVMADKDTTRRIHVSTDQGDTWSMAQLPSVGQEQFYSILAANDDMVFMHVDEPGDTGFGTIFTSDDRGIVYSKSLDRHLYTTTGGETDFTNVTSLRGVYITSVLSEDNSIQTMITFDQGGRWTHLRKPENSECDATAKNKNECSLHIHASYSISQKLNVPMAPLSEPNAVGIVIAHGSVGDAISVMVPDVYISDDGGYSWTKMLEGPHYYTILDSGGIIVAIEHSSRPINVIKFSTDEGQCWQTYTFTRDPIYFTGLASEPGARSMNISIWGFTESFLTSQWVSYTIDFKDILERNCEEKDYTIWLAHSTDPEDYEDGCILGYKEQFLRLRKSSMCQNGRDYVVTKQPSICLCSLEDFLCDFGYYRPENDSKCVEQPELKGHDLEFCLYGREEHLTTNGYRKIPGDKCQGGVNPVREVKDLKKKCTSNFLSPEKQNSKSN
Method: as §1

- Kd [1]: ~15 nM
- Kd [2]: ~5 nM
B1: Human recombinant proNGF (produced in E. coli) (ligand)
chain: not shown
notes: The end 241 is the end of the entry as printed
